Some of the results follow.
Assays:
Assay in all cases: glycan array binding signal (z-score within array); higher = stronger binding
Conditions in all cases: glycan notation: IUPAC condensed, linker removed
[1] = molecular target: Gal(a1-3)Gal(b1-4)GlcNAc(b1-2)Man
How it was run: (§1)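 Glycan array data came from 3228 arrays in the Consortium for Functional Glycomics database, and only arrays with an available protein sequence were kept. Glycan names were put into IUPAC-condensed notation, and columns mapping to the same glycan were averaged. The binding signal is a within-array Z-score, averaged across arrays of one protein sequence run at different concentrations or buffers and across linkers. A negative Z-score can be read as non-binding.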

[2] = molecular target: Gal(a1-3)Gal(b1-4)GlcNAc(b1-2)Man(a1-3)[Gal(a1-3)Gal(b1-4)GlcNAc(b1-2)Man(a1-6)]Man(b1-4)GlcNAc(b1-4)GlcNAc
How it was run: as §1

[3] = molecular target: Gal(a1-3)Gal(b1-4)GlcNAc(b1-3)GalNAc
How it was run: as §1

[4] = molecular target: Gal(a1-3)Gal(b1-4)GlcNAc(b1-6)GalNAc
How it was run: as §1

[5] = molecular target: Gal(a1-3)Gal(b1-4)[Fuc(a1-3)]GlcNAc
How it was run: as §1

[6] = molecular target: Gal(a1-3)Gal(b1-4)[Fuc(a1-3)]GlcNAc(b1-2)Man(a1-3)[Gal(a1-3)Gal(b1-4)[Fuc(a1-3)]GlcNAc(b1-2)Man(a1-6)]Man(b1-4)GlcNAc(b1-4)GlcNAc
How it was run: as §1

Gal(a1-3)GalNAc = molecular target: Gal(a1-3)GalNAc
How it was run: as §1

[7] = molecular target: Gal(a1-3)[Gal(a1-4)]Gal(b1-4)GlcNAc
How it was run: as §1

[8] = molecular target: Gal(a1-4)Gal(b1-3)GlcNAc(b1-2)Man(a1-3)[Gal(a1-4)Gal(b1-3)GlcNAc(b1-2)Man(a1-6)]Man(b1-4)GlcNAc(b1-4)GlcNAc
How it was run: as §1

Gal(a1-4)Gal(b1-4)Glc = molecular target: Gal(a1-4)Gal(b1-4)Glc
How it was run: as §1

Gal(a1-4)Gal(b1-4)GlcNAc = molecular target: Gal(a1-4)Gal(b1-4)GlcNAc
How it was run: as §1

[9] = molecular target: Gal(a1-4)Gal(b1-4)GlcNAc(b1-2)Man(a1-3)[Gal(a1-4)Gal(b1-4)GlcNAc(b1-2)Man(a1-6)]Man(b1-4)GlcNAc(b1-4)GlcNAc
How it was run: as §1

[10] = molecular target: Gal(a1-4)Gal(b1-4)GlcNAc(b1-3)Gal(b1-4)Glc
How it was run: as §1

Gal(a1-4)GlcNAc = molecular target: Gal(a1-4)GlcNAc
How it was run: as §1

Gal(a1-6)Glc = molecular target: Gal(a1-6)Glc
How it was run: as §1

Gal(b1-2)Gal = molecular target: Gal(b1-2)Gal
How it was run: as §1

Gal(b1-3)Gal = molecular target: Gal(b1-3)Gal
How it was run: as §1

Gal(b1-3)Gal(b1-4)GlcNAc = molecular target: Gal(b1-3)Gal(b1-4)GlcNAc
How it was run: as §1

Gal(b1-3)GalNAc = molecular target: Gal(b1-3)GalNAc
How it was run: as §1

[11] = molecular target: Gal(b1-3)GalNAc(a1-3)[Fuc(a1-2)]Gal(b1-4)Glc
How it was run: as §1

[12] = molecular target: Gal(b1-3)GalNAc(a1-3)[Fuc(a1-2)]Gal(b1-4)GlcNAc
How it was run: as §1

Gal(b1-3)GalNAc(b1-3)Gal = molecular target: Gal(b1-3)GalNAc(b1-3)Gal
How it was run: as §1

[13] = molecular target: Gal(b1-3)GalNAc(b1-3)Gal(a1-4)Gal(b1-4)Glc
How it was run: as §1

[14] = molecular target: Gal(b1-3)GalNAc(b1-4)Gal(b1-4)Glc
How it was run: as §1

[15] = molecular target: Gal(b1-3)GalNAc(b1-4)[Neu5Ac(a2-3)]Gal(b1-4)Glc
How it was run: as §1

Gal(b1-3)GlcNAc = molecular target: Gal(b1-3)GlcNAc
How it was run: as §1

[16] = molecular target: Gal(b1-3)GlcNAc(a1-3)Gal(b1-4)GlcNAc
How it was run: as §1

[17] = molecular target: Gal(b1-3)GlcNAc(a1-6)Gal(b1-4)GlcNAc
How it was run: as §1

Gal(b1-3)GlcNAc(b1-2)Man = molecular target: Gal(b1-3)GlcNAc(b1-2)Man
How it was run: as §1

[18] = molecular target: Gal(b1-3)GlcNAc(b1-2)Man(a1-3)[Gal(b1-3)GlcNAc(b1-2)Man(a1-6)]Man(b1-4)GlcNAc(b1-4)GlcNAc
How it was run: as §1

[19] = molecular target: Gal(b1-3)GlcNAc(b1-2)Man(a1-3)[Gal(b1-3)GlcNAc(b1-2)Man(a1-6)]Man(b1-4)GlcNAc(b1-4)[Fuc(a1-6)]GlcNAc
How it was run: as §1

[20] = molecular target: Gal(b1-3)GlcNAc(b1-2)Man(a1-3)[GlcNAc(b1-4)][Gal(b1-3)GlcNAc(b1-2)Man(a1-6)]Man(b1-4)GlcNAc(b1-4)GlcNAc
How it was run: as §1

[21] = molecular target: Gal(b1-3)GlcNAc(b1-2)[Gal(b1-3)GlcNAc(b1-6)]Man(a1-6)[Gal(b1-3)GlcNAc(b1-2)Man(a1-3)]Man(b1-4)GlcNAc(b1-4)GlcNAc
How it was run: as §1

[22] = molecular target: Gal(b1-3)GlcNAc(b1-3)Gal(b1-3)GlcNAc
How it was run: as §1

[23] = molecular target: Gal(b1-3)GlcNAc(b1-3)Gal(b1-4)Glc
How it was run: as §1

[24] = molecular target: Gal(b1-3)GlcNAc(b1-3)Gal(b1-4)GlcNAc
How it was run: as §1

[25] = molecular target: Gal(b1-3)GlcNAc(b1-3)Gal(b1-4)GlcNAc(b1-2)Man(a1-3)[Gal(b1-3)GlcNAc(b1-3)Gal(b1-4)GlcNAc(b1-2)Man(a1-6)]Man(b1-4)GlcNAc(b1-4)GlcNAc
How it was run: as §1

B1: B1567 (Bifidobacterium sp) (protein)
chain: MKFTTAKKAVALTGAVAMLVSVAACGSDSGKSSQPAQDSDVKEITVWAWEPSLTQVAKDFEKETGIKVDLKNVGTNTKEYTQLDNAIEAGSGAPDVAQVEYYAVPQYAIKGNLLDITDKTSGYKDFYTPGPWASVQFAGKVYGLPMDSGPMAFFYNKEVFDKAGVDAEQIKTWDQYYDAAKKIHALGDNYYITSDTGDAGFFDSMTWLAGAKPFQTSSDGSEVTVNLTEDKGVKTFTDFWQKLLDEGLLDTKTAGWSEDWFKGMVDGTIASLFTGAWMPANLANSAADGAGKWRVTQMPTADGSTTNSENGGSSLAVLASTKKADAAYQFIEYANHGAGVATRVAGGAFPADKASLEKDSFKNATTVKNADGQDVDYFGGQKYNEVLAQAAENVSSGYQFLPFEVKARTIFGDYFGKSYTGDQKLSDGVAAWQKALQDYGKDQGFTVK
In the case of B1, the “glycan array binding signal (z-score)” value [1] is reported as -0.074, the “glycan array binding signal (z-score)” value [2] is reported as 0.008 and the “glycan array binding signal (z-score)” value [3] is reported as -0.115. The “glycan array binding signal (z-score)” value [4] was -0.063, the “glycan array binding signal (z-score)” value [5] was -0.122 and the “glycan array binding signal (z-score)” value [6] was 0.069. The “glycan array binding signal (z-score)” value (Gal(a1-3)GalNAc) was -0.092, the “glycan array binding signal (z-score)” value [7] was -0.111 and the “glycan array binding signal (z-score)” value [8] was -0.076. The “glycan array binding signal (z-score)” value (Gal(a1-4)Gal(b1-4)Glc) was -0.136, the “glycan array binding signal (z-score)” value (Gal(a1-4)Gal(b1-4)GlcNAc) was -0.084 and the “glycan array binding signal (z-score)” value [9] was 0.067. The “glycan array binding signal (z-score)” value [10] was -0.15, the “glycan array binding signal (z-score)” value (Gal(a1-4)GlcNAc) was -0.092 and the “glycan array binding signal (z-score)” value (Gal(a1-6)Glc) was -0.044. The “glycan array binding signal (z-score)” value (Gal(b1-2)Gal) was -0.056, the “glycan array binding signal (z-score)” value (Gal(b1-3)Gal) was -0.133 and the “glycan array binding signal (z-score)” value (Gal(b1-3)Gal(b1-4)GlcNAc) was -0.08. For the same binder, the “glycan array binding signal (z-score)” value (Gal(b1-3)GalNAc) was 0.003, the “glycan array binding signal (z-score)” value [11] was -0.013 and the “glycan array binding signal (z-score)” value [12] was -0.125. For the same binder, the “glycan array binding signal (z-score)” value (Gal(b1-3)GalNAc(b1-3)Gal) was -0.121, the “glycan array binding signal (z-score)” value [13] was -0.032 and the “glycan array binding signal (z-score)” value [14] was -0.11. The “glycan array binding signal (z-score)” value [15] was -0.13, the “glycan array binding signal (z-score)” value (Gal(b1-3)GlcNAc) was -0.124 and the “glycan array binding signal (z-score)” value [16] was -0.132. For the same binder, the “glycan array binding signal (z-score)” value [17] was -0.093, the “glycan array binding signal (z-score)” value (Gal(b1-3)GlcNAc(b1-2)Man) was 0.008 and the “glycan array binding signal (z-score)” value [18] was -0.108. For the same binder, the “glycan array binding signal (z-score)” value [19] was -0.125, the “glycan array binding signal (z-score)” value [20] was -0.044 and the “glycan array binding signal (z-score)” value [21] was -0.084. The “glycan array binding signal (z-score)” value [22] was -0.076, the “glycan array binding signal (z-score)” value [23] was -0.121 and the “glycan array binding signal (z-score)” value [24] was -0.02. For the same binder, the “glycan array binding signal (z-score)” value [25] was 0.001.

— the supplement of paper PMC8728848
